The IC50 comes from the fitted curve, where viability falls to half of the control; a limit (>, <) means that the fit lies beyond the doses tested. AUC is the area under the same curve over the 256-fold range up to the top dose, as a fraction; the more sensitive the line, the further below 1. Where the top dose is marked as inferred, it was derived from the fitted curves, not read from the paper. For some of these results: Where an entry number is given, a second screen of the drug exists; the two often differ. Bounds are passed on as bounds.

Compound in the first assay: CNC(=O)c1ccc(Nc2cc(Nc3ccccc3S(=O)(=O)C(C)C)c3cc[nH]c3n2)nc1 [HG-5-113-01]
Nature of the assay: Viability of human cancer cell lines after 72 h of drug (GDSC screen). To be noted: top dose 10 µM; top dose inferred. The procedure: (§1)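 Human cancer cell lines in 384-well plates, medium with 10% serum, drug for 72 h over a 256-fold dose range (nine 2-fold or five 4-fold steps up to the top dose). Adherent lines were fixed and stained with the nucleic acid dye Syto60, suspension lines read with resazurin; signal relative to control wells, capped at 0 and 100%. One two-parameter sigmoid per drug and line, fitted in a mixed model over all curves with the slope shared within a line.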
Take “NCI-H1437 (lung adenocarcinoma, adherent)”: the AUC came to 0.746 and the half-maximal inhibitory concentration (IC50) is 3.29 µM.
Taken in the same sequence, the figures for “NCI-H1563 (lung adenocarcinoma, adherent)” were 0.794 and 5.58 µM.
For “NCI-H1623 (lung adenocarcinoma, adherent)” the same measures were 0.896 and over 10 µM.
With “NCI-H1651 (lung adenocarcinoma, adherent)”, the AUC turned out to be 0.811 and the concentration for half-maximal inhibition (IC50) was determined as 5.82 µM.
Taken in the same sequence, the figures for “NCI-H1755 (lung adenocarcinoma, adherent)” were 0.717 and 2.88 µM.
Taken in the same sequence, the figures for “NCI-H1781 (lung adenocarcinoma, adherent)” were 0.813 and 5.41 µM.
For “NCI-H1993 (lung adenocarcinoma, adherent)” the same measures were 0.909 and over 10 µM.
As for “NCI-H2087 (lung adenocarcinoma, semi-adherent)”, the AUC turned out to be 0.788 and the IC50 came to 4.74 µM.
For “NCI-H2291 (lung adenocarcinoma, adherent)” the same measures were 0.733 and 3.78 µM.
For “NCI-H2347 (lung adenocarcinoma, adherent)” the same measures were 0.787 and 5.4 µM.
Taken in the same sequence, the figures for NUGC-4 (stomach, adherent) were 0.848 and 7.48 µM.
Turning to PC-14 (lung adenocarcinoma, adherent), the AUC was found to be 0.691 and the IC50 worked out at 2.01 µM.
For PFSK-1 (medulloblastoma, adherent) the same measures were 0.7 and 2.37 µM.
Consider RCM-1 (large intestine, adherent), for which the AUC came to 0.895 and the IC50 is over 10 µM.

Compound in a further assay: Cc1cccc(-c2[nH]c(C(C)(C)C)nc2-c2ccc3nccnc3c2)n1 [SB-525334]
The description is as above. To be noted: top dose 20 µM; top dose inferred. On the procedure:
as §1
On to “LOU-NH91 (lung squamous cell carcinoma, adherent)”, for which the AUC is 0.98 and the IC50 is over 20 µM.
Taken in the same sequence, the figures for LS-180 (large intestine, adherent) were 0.982 and over 20 µM.
Consider M059J (glioma, adherent), for which the AUC is 0.931 and the IC50 is over 20 µM.
For MES-SA (uterus, adherent) the same measures were 0.992 and over 20 µM.
Taken in the same sequence, the figures for MFE-280 (endometrium, adherent) were 0.857 and over 20 µM.
Taken in the same sequence, the figures for MFE-296 (endometrium, adherent) were 0.976 and over 20 µM.
As to MOG-G-CCM (glioma, adherent), the AUC turned out to be 0.945 and the IC50 was over 20 µM.
For NCI-H28 (mesothelioma, adherent) the same measures were 0.953 and over 20 µM.
For NCI-H630 (large intestine, adherent) the same measures were 0.953 and over 20 µM.
For the cell line “NCI-H650 (lung adenocarcinoma, adherent)”, the AUC stood at 0.966 and the concentration for half-maximal inhibition (IC50) is over 20 µM.
For “NCI-H810 (large cell lung carcinoma, adherent)” the same measures were 0.988 and over 20 µM.
In the case of “NCI-H1437 (lung adenocarcinoma, adherent)”, the AUC is 0.954 and the IC50 is over 20 µM.
Taken in the same sequence, the figures for “NCI-H1563 (lung adenocarcinoma, adherent)” were 0.861 and over 20 µM.
“NCI-H1623 (lung adenocarcinoma, adherent)”: the AUC turned out to be 0.977 and the IC50 was over 20 µM.
For “NCI-H1651 (lung adenocarcinoma, adherent)”, the AUC is 0.986 and the IC50 is over 20 µM.
Taken in the same sequence, the figures for “NCI-H1755 (lung adenocarcinoma, adherent)” were 0.495 and 1.21 µM.
For “NCI-H1781 (lung adenocarcinoma, adherent)” the same measures were 0.988 and over 20 µM.
For “NCI-H1993 (lung adenocarcinoma, adherent)” the same measures were 0.974 and over 20 µM.
With “NCI-H2087 (lung adenocarcinoma, semi-adherent)”, the AUC is 0.961 and the IC50 was over 20 µM.
“NCI-H2291 (lung adenocarcinoma, adherent)”: the AUC came to 0.984 and the 50% inhibitory concentration (IC50) was over 20 µM.
“NCI-H2347 (lung adenocarcinoma, adherent)”: the AUC was determined as 0.839 and the 50% inhibitory concentration (IC50) was found to be 18.1 µM.
For NUGC-4 (stomach, adherent) the same measures were 0.924 and over 20 µM.
Taken in the same sequence, the figures for PC-14 (lung adenocarcinoma, adherent) were 0.984 and over 20 µM.
PFSK-1 (medulloblastoma, adherent): the AUC was found to be 0.922 and the IC50 was over 20 µM.
For RCM-1 (large intestine, adherent) the same measures were 0.973 and over 20 µM.

Compound in a further assay: O=C(c1cc(Cc2n[nH]c(=O)c3ccccc23)ccc1F)N1CCN(C(=O)C2CC2)CC1 [Olaparib]
The assay is described as above. The conditions noted are these: top dose 5 µM; screen: GDSC drug entry 1017; top dose inferred. On the procedure:
as §1
In the case of “LOU-NH91 (lung squamous cell carcinoma, adherent)”, the AUC amounted to 0.986 and the 50% inhibitory concentration (IC50) is over 5 µM.
For LS-180 (large intestine, adherent) the same measures were 0.972 and over 5 µM.
On to M059J (glioma, adherent), for which the AUC turned out to be 0.959 and the IC50 was over 5 µM.
Take MES-SA (uterus, adherent): the AUC is 0.984 and the 50% inhibitory concentration (IC50) is over 5 µM.
Taken in the same sequence, the figures for MFE-280 (endometrium, adherent) were 0.982 and over 5 µM.
As for MFE-296 (endometrium, adherent), the AUC was 0.971 and the IC50 is over 5 µM.
As for MOG-G-CCM (glioma, adherent), the AUC amounted to 0.945 and the IC50 was over 5 µM.
NCI-H28 (mesothelioma, adherent): the AUC came to 0.967 and the IC50 is over 5 µM.
For NCI-H630 (large intestine, adherent) the same measures were 0.966 and over 5 µM.
In the case of “NCI-H650 (lung adenocarcinoma, adherent)”, the AUC worked out at 0.969 and the IC50 was over 5 µM.
Turning to “NCI-H810 (large cell lung carcinoma, adherent)”, the AUC worked out at 0.984 and the half-maximal inhibitory concentration (IC50) was over 5 µM.
Taken in the same sequence, the figures for “NCI-H1437 (lung adenocarcinoma, adherent)” were 0.982 and over 5 µM.
Taken in the same sequence, the figures for “NCI-H1563 (lung adenocarcinoma, adherent)” were 0.985 and over 5 µM.
Taken in the same sequence, the figures for “NCI-H1623 (lung adenocarcinoma, adherent)” were 0.985 and over 5 µM.
For the cell line “NCI-H1651 (lung adenocarcinoma, adherent)”, the AUC turned out to be 0.914 and the IC50 was over 5 µM.
Taken in the same sequence, the figures for “NCI-H1755 (lung adenocarcinoma, adherent)” were 0.984 and over 5 µM.
For “NCI-H1781 (lung adenocarcinoma, adherent)” the same measures were 0.989 and over 5 µM.
